In PubChem BioAssay AID360 (National Center for Advancing Translational Sciences (NCATS), 2006):
In all, about 48,000 compounds went through this assay and about 550 (1.1%) were called active. Another 4% or so got no clear call; they are omitted. Rule as the data show it: active = potency below about 15 µM; inconclusive = mostly about 16 µM to 33 µM; inactive = weaker than that. The list shows a part of the results.

Each compound was assayed against Lysosomal acid glucosylceramidase (Homo sapiens) (UniProt P04062) (assay: Glucocerebrosidase). Conditions: purified enzyme, resorufin glucoside fluorescence (screen aimed at inhibitors), 20 min.
UniProt P04062, sequence (P04062 whole entry, looked up): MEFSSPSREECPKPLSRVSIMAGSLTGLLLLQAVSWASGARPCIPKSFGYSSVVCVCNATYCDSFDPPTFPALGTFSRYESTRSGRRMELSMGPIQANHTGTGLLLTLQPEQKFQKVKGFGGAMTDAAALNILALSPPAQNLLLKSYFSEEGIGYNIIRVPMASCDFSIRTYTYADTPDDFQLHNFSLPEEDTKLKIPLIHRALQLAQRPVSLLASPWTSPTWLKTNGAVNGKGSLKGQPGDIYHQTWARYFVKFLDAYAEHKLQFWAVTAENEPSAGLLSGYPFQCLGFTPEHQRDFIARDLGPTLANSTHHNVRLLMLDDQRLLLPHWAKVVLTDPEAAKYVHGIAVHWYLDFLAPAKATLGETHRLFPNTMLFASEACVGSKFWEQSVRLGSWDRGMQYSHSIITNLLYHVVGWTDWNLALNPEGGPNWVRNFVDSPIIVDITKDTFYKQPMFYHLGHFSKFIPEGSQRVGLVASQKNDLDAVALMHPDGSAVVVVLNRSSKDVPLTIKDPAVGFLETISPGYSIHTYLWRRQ
Method in brief: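 Wild-type enzyme at 0.2 nM final in 50mM citric acid/KH2PO4, 10mM sodium taurocholate, 0.01% tween-20, pH 5.9, with resorufin beta-D-glucopyranoside at 30 uM final. Compounds titrated, 20 min at RT, red fluorescence read; AC50 from titration.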
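Also: the screen sought inhibitors.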
Potency is read from the fitted curve at half-maximal effect.

Potency, inactive:
N#Cc1c(N)oc(-c2ccco2)c1-c1ccco1 > 76.9 µM
COc1ccc(-c2nnc(SCC(=O)N3CCCC(C)C3)o2)c(OC)c1 (stereo unspecified) > 76.9 µM
CCn1c(SCC(=O)Nc2nccs2)nnc1-c1ccc(S(=O)(=O)N2CCCCC2)cc1 > 76.9 µM
Cc1nn(-c2ccccn2)c(C)c1Oc1ccccc1O > 76.9 µM
CC(Cc1cccs1)NC(=O)NC1CCCCC1 (stereo unspecified) > 76.9 µM
CCOC(=O)CCc1c(C)nc(SCC(=O)O)c(C#N)c1C > 76.9 µM
COC(=O)c1ccc2ncccc2c1 > 76.9 µM
CCC(=O)N1CCc2cc(Br)cc(S(=O)(=O)NCC3CCCO3)c21 (stereo unspecified) > 76.9 µM
O=C(NC1CCCCC1)N1CCC(c2nc3ccc(Cl)cc3[nH]2)CC1
COCCN1Cc2c(sc(C)c2C)N(C(=O)c2ccccc2)C1 > 76.9 µM
CCn1nc(C(=O)N2CCc3ccccc3C2)c2ccccc2c1=O > 76.9 µM
COCCCn1c(=N)c(C(=O)NCc2ccc3c(c2)OCO3)cc2c(=O)n3ccccc3nc21 > 76.9 µM
CSCCNC(=O)c1ccc(C(C)(C)C)cc1 > 76.9 µM
CCCOC(=O)CCCCC1SCC(NC(=O)OC)C1NC(=O)OC (stereo unspecified) > 76.9 µM
O=C1OC(N2CCN(Cc3ccccc3)CC2)c2ccccc21 (stereo unspecified) > 76.9 µM
COC(=O)c1cc(NC(=O)c2ccc(Cn3cc(Cl)cn3)o2)cc(C(=O)OC)c1 > 76.9 µM
Cn1nnnc1SCCOc1ccc(C#N)cc1 > 76.9 µM
CCOC(=O)C1CCCN(c2ccc(NC(=O)c3snc4c(=O)[nH]cnc34)cc2)C1 (stereo unspecified) > 76.9 µM
O=C(Nc1cccc2cccnc12)c1cccc(N2C(=O)CCC2=O)c1 > 76.9 µM
CCCn1nc(NC(=O)c2ccco2)c2cc3ccc(C)cc3nc21 > 76.9 µM
O=C(C1CCN(S(=O)(=O)c2ccc(Br)s2)CC1)N1CCc2ccccc21 > 76.9 µM
COc1ccccc1N1CCN(C(=O)c2cn(-c3ccccc3)nc2-c2cccnc2)CC1 > 76.9 µM
O=C(CSc1nnc(Cc2ccccc2)n1-c1ccc(F)cc1)N1CCOCC1 > 76.9 µM
COc1cccc(-c2nnn(CC(=O)O)n2)c1 > 76.9 µM
Cc1nn(C)c(N)c1C(O)(c1nccn1C)C(F)(F)F (stereo unspecified) > 76.9 µM
CCn1cc(C(=O)NC2CC3CCC2C3)c(=O)c2ccc(C)nc21 (stereo unspecified)
COc1ccc(-c2cc(C(F)F)nc(-n3nc(C)cc3C)n2)cc1 > 76.9 µM
COc1ccc(CNC(=O)C2CCN(S(=O)(=O)c3c(C)n[nH]c3C)CC2)cc1 > 76.9 µM
CCOC(=O)CCNC(=O)Nc1ccc2nc(C)n(Cc3ccccc3Cl)c(=O)c2c1 > 76.9 µM
O=c1[nH]c2sc3c(c2c2nncn12)CCCC3
CC(C)(C#N)NC(=O)c1ccco1 > 76.9 µM
COC(=O)CSc1nnc(-c2ccc(S(=O)(=O)N3CCCCC3)cc2)o1 > 76.9 µM
CCCn1nnc(NC(=O)c2ccco2)n1 > 76.9 µM
CC1CCc2nc(NCCO)nc(C(F)(F)F)c2C1 (stereo unspecified) > 76.9 µM
Cc1ccc(NC(=O)NCCCN2CCOCC2)cc1 > 76.9 µM
Cc1noc(C)c1CSc1nnc(-c2ccncc2)n1-c1cccc(Cl)c1C > 76.9 µM
O=S(=O)(c1ccc(-n2cnnn2)cc1)N(C1CCCCC1)C1CCCCC1
Cc1ccc(OCCCn2c(CO)nc3ccccc32)cc1 > 76.9 µM
Cc1occc1C(=O)Nc1sc2c(c1C(N)=O)CCCCC2 > 76.9 µM
CCOC(=O)c1c(NC(=O)CSc2nnc(-c3cccnc3)n2Cc2ccco2)sc(C)c1C > 76.9 µM
Cc1ccc(OCC(=O)Nc2ccc(-c3nc4ncccc4o3)cc2)cc1 > 76.9 µM
COc1ccc(CCNC(=O)CSc2nnc(-c3cccc(C)c3)o2)cc1OC > 76.9 µM
CCCc1nc(-c2cc3ccc(C)cc3[nH]c2=O)no1 > 76.9 µM
Nn1c(CN2CCCCC2)nc2ccccc2c1=O > 76.9 µM
C=CCn1c(CCNC(=O)C(C)(C)C)nc2ccccc21 > 76.9 µM
COc1cccc(NC(=O)Nc2cc(C)ccc2F)c1 > 76.9 µM
CCOC(=O)c1cnn(-c2ncnc3sc4c(c23)CCC4)c1N > 76.9 µM
CCOC(=O)c1nc(NCc2cccnc2)c2ccccc2n1 > 76.9 µM
CCOCC(=O)Nc1ccc(-c2cn3cccnc3n2)cc1 > 76.9 µM
CN1CCN(C(=S)c2ccc(N(C)C)cc2)CC1 > 76.9 µM
O=C(CSc1ncnc2c1cnn2-c1ccccc1)Nc1ccccc1 > 76.9 µM
FC(F)(F)c1ccc(Sc2nnc(-c3cccs3)n2CC2CCCO2)nc1 (stereo unspecified) > 76.9 µM
O=S(=O)(c1ccccc1)c1nc(-c2ccccc2)oc1NCc1cccnc1 > 76.9 µM
CCOc1ncccc1C(=O)OCCN1C(=O)c2ccccc2C1=O > 76.9 µM
CCC(=O)N1CCc2cc(S(=O)(=O)NC(C(=O)Nc3cccc(C)n3)C(C)C)ccc21 (stereo unspecified) > 76.9 µM
CCOc1ccc(Cl)cc1S(=O)(=O)N1CCCC1 > 76.9 µM
Cc1nc(C)c(C(=O)NCc2ccc(Cl)cc2)o1 > 76.9 µM
COC(=O)c1ccc(-c2nc3ccccc3o2)cc1 > 76.9 µM
Cc1noc(C)c1CSc1nnc(C)c(=O)[nH]1 > 76.9 µM
Nc1nnc(-c2cn(-c3ccccc3)nc2-c2ccccc2)o1 > 76.9 µM
CC(C)c1ccc(O)c(NC(=O)c2cncc(Br)c2)c1 > 76.9 µM
